Source: PubChem BioAssay AID686971 (National Center for Advancing Translational Sciences (NCATS), 2013)
Where “and” joins values, the source holds several entries; their conditions need not be identical. Equal values may be shown once. The campaign covered roughly 360,000 compounds. About 7,500 (2.1%) were called active. Inconclusive results, whose numbers are uncertain, are shown with a selection of clear calls. Calls follow the shape of the dose curve; as a rule, active = well fitted cell-killing curve with a large enough effect; inconclusive = small, poorly fitted or top-dose-only effect, or effect the other way, or another doubt; inactive = no such curve, though single readings can be large or run the other way. Where the call is inconclusive, the potency comes from a doubtful curve fit.

Test: qHTS for induction of synthetic lethality in tumor cells producing 2HG: qHTS for the HT-1080-IDH1KD cell line;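 as to activity, negative = toxicity: 0% = DMSO wells and -100% = cell-free medium wells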
Conditions: HT-1080 IDH1 knockdown viability, ATP luminescence, 48 h; activity, negative = toxicity: at 46.1 µM (top of the series) unless noted
Summary of the method: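 Luminescent ATP read-out (CellTiter-Glo, 10 min at room temperature) after 48 h compound exposure at 37 °C gave viability of IDH1-knockdown HT-1080 cells. Activity was normalised to DMSO and cell-free wells, then fitted as concentration-response curves.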
Potency is read from the fitted curve at half-maximal effect; tags tell the direction and shape of the fitted curve.

Compound	activity, negative = toxicity	Potency
O=C(CCC(=O)N/N=C/c1ccco1)N/N=C/c1ccco1	inconclusive: 10.3%	–
COc1ccc(CNc2nc3ccccc3n2Cc2ccc(Cl)cc2)cc1OC	–	active: 16.4 µM
CCOC(=O)c1ccc(NC(=O)CN(c2ccc(C)cc2)S(=O)(=O)c2c(C)nn(C)c2C)cc1	–	inconclusive: 28.2 µM [cytotoxic, single point]
Cc1ccc(C)c(S(=O)(=O)N2CCCC2CNC(=O)C(=O)NC2CCCCCC2)c1 (centres undefined)	inactive: 12%	–
COC(=O)c1cc(C)nc(Nc2nc(C(N)Cc3ccc(Cl)cc3)cs2)n1 (centres undefined)	–	inconclusive: 29.1 µM [cytotoxic, single point]
Cn1ncc2c(Nc3ccccc3Cl)nc(Nc3ccccc3Cl)nc21	–	inconclusive: 16.4 µM [cytotoxic, single point]
CC(C)(C)c1ccc(OCCC(=O)Nc2cccc(S(=O)(=O)NC3=NCCCCC3)c2)cc1	–	inconclusive: 11.6 µM [cytotoxic, partial curve]
COC(=O)c1cc(Br)ccc1-c1ccc(/C=N/n2nnnc2N)o1	–	inconclusive: 11.2 µM [cytotoxic, single point]
CCC(C)c1ccccc1OCCCN(C)Cc1ccccc1 (centres undefined)	–	inconclusive: 29.1 µM [cytotoxic, single point]
Cc1ccc(NS(=O)(=O)c2ccc(C(=O)NCCCN3CCCC3=O)cc2)cc1	inactive: -12%	–
CCCc1ccc(C(O)c2ncc(-c3ccccc3F)[nH]2)cc1 (centres undefined)	–	inconclusive: 23.1 µM [cytotoxic, single point]
COc1ccc2c(c1)[C@H]1[C@H](CO2)[C@H](c2ccccc2)[C@]2(C)C(=O)Nc3ccccc3C(=O)N12	–	inconclusive: 29.1 µM [cytotoxic, single point]
CCCCC(=O)NC(c1ccc(OC)cc1)c1ccc2cccnc2c1O (centres undefined)	–	inconclusive: 23.1 µM [cytotoxic, partial curve]
CCc1c(-c2ccc(F)cc2)ncn1Cc1cccc(-c2ccccc2)c1	–	inconclusive: 23.1 µM [cytotoxic, single point]
C[C@H]1CN([C@@H](C)CO)S(=O)(=O)c2ccc(C3=CCCC3)cc2O[C@@H]1CN(C)C(=O)C1CCCCC1	–	inconclusive: 14.6 µM [cytotoxic, partial curve]
Cc1c(C(=O)OCC(=O)Nc2ccc(S(N)(=O)=O)cc2)oc2c1ccc1ccccc12	–	inconclusive: 6.51 µM [cytotoxic, full curve]
Cc1ccc(O)c([C@H](CCN(C(C)C)C(C)C)c2ccccc2)c1	–	inconclusive: 29.1 µM [cytotoxic, single point] and inconclusive: 23.1 µM [cytotoxic, single point]
COc1ccc(OC)c(CN2C(=O)c3ccccc3C2c2nnnn2-c2ccc3c(c2)OCCO3)c1 (centres undefined)	–	inconclusive: 9.2 µM [cytotoxic, partial curve]
N#CCCn1nc(-c2ccc(Br)cc2)cc1Nc1ccccc1NC(=O)C(F)(F)F	–	inconclusive: 16.4 µM [cytotoxic, partial curve]
CS(=O)(=O)N1CCC(C(=O)Nc2ccc(Cl)cc2Cl)CC1	inactive: -1.85%	–
COc1cc(OC)cc(C(=O)NNC(=O)c2ccc3c(c2)OCCO3)c1	inactive: 7.46%	–
Cc1cc(Cl)ccc1NNC(=O)c1cccs1	–	inconclusive: 7.31 µM [cytotoxic, partial curve]
CCN(CC)S(=O)(=O)c1cc(C(=O)N2CCc3ccccc32)ccc1Cl	–	inconclusive: 29.1 µM [cytotoxic, single point]

Compound	activity, negative = toxicity	Potency
O=S(Cc1ccc(Cl)cc1)c1ncc(CO)n1Cc1ccccc1 (centres undefined)	inactive: -0.0937%	–
COc1cc2c(cc1OC)C(c1c(-c3c(Cl)cccc3Cl)noc1C)=NCC2	inconclusive: -30.1% [cytotoxic]	–
Cc1ccc(NC(=O)Cn2cnc3sc(C(=O)NCc4ccco4)c(C)c3c2=O)cc1Cl	–	inconclusive: 14.1 µM [cytotoxic, single point]
CC1CN(CCOCCOc2ccccc2-c2ccccc2)CC(C)O1 (centres undefined)	inactive: -6.64%	–
O=C(Nc1ccc(Cl)cn1)Nc1ccc(Cl)cn1	–	inconclusive: 0.082 µM [rising, full curve, poor fit]
Nc1[nH]n(-c2ccccc2)c(=O)c1N=Nc1ccc2c(c1)OCO2	–	inconclusive: 7.31 µM [cytotoxic, partial curve]
O=C(CSc1ccccn1)Nc1ccc2c(c1)C(=O)c1ccccc1C2=O	–	active: 20.6 µM
O=S(c1ccc2ccccc2c1)c1cnns1 (centres undefined)	–	inconclusive: 20.6 µM [cytotoxic, single point]
Cc1ccc(-c2[nH]c3ccccc3c2SCCNC(=O)c2cc3ccccc3oc2=O)cc1	–	inconclusive: 29.1 µM [cytotoxic, single point]
Cc1ccc(NC(=O)c2ccc3c(c2)OCCO3)cc1S(=O)(=O)Nc1cccc(Cl)c1	inactive: -11.5%	–
COc1ccccc1NC(=O)CC1S/C(=N/N=C2\CCCc3ccccc32)NC1=O (centres undefined)	–	inconclusive: 20.6 µM [cytotoxic, partial curve]
O=C1Nc2ccccc2C1Cc1ccccc1 (centres undefined)	inactive: 3.82%	–
CN(C)CCNC(=O)c1cc2c(s1)-c1ccccc1OC2	–	inconclusive: 29.1 µM [cytotoxic, single point]
BrC(=C\c1ccccc1)/C=N/Nc1ccc2nncn2n1	–	inconclusive: 25.9 µM [cytotoxic, partial curve]
CC1=C(SCc2ccccc2)C(=O)c2ccccc2C1=O	–	active: 25.9 µM
COc1ccccc1/C=C/C(=O)NCCC1=CCCCC1	inactive: 10.3%	–
COc1ccc2cc(C(=O)C3CCCN(C(=O)CSc4nnc(C)o4)C3)ccc2c1 (centres undefined)	inconclusive: -34.1% [cytotoxic]	–
Oc1cc(NCc2cccnc2)ccc1-c1nc2ccccc2o1	–	inconclusive: 29.1 µM [cytotoxic, single point]
N#C/C(=C/c1ccc(O)c([N+](=O)[O-])c1)C(=O)Nc1ccccc1	–	active: 8.2 µM
COc1ccc(C(=O)NCc2ccncc2)cc1S(=O)(=O)N1CCOCC1	inactive: -1.38%	–
CCOc1ccccc1/C=C/C(=O)N1CCN(C(=O)c2ccco2)CC1	inactive: 17.5%	–
CCc1nnc(NC(=O)CN2C(=O)/C(=C/c3cc(OC)c(OC)c(OC)c3)SC2=S)s1	–	inconclusive: 29.1 µM [cytotoxic, single point]
CC(C)c1ccc(S(=O)(=O)c2cc3cc(Br)ccc3oc2=O)cc1	–	active: 13 µM

Compound	activity, negative = toxicity	Potency
Cc1ccc(Nc2nc(-c3cccnc3)nc3ccccc23)cc1	–	inconclusive: 13 µM [cytotoxic, partial curve]
Cc1ccccc1NC(=O)C(=O)NNC(=O)COc1ccc2ccccc2c1	–	inconclusive: 29.1 µM [cytotoxic, single point]
CC(C)C[C@H]1C(=O)N2CCC[C@H]2[C@]2(O)O[C@](NC(=O)C3C=C4c5cccc6[nH]c(Br)c(c56)C[C@H]4N(C)C3)(C(C)C)C(=O)N12 (some centres undefined)	–	inconclusive: 9.2 µM [cytotoxic, partial curve]
CCCCOC(=O)c1ccc(NC(=O)c2cc(Cl)ccc2OC)cc1	–	inconclusive: 16.4 µM [cytotoxic, single point]
Cc1nnc(Sc2cc(NCCCO)c([N+](=O)[O-])c3nonc23)s1	–	active: 16.4 µM
O=C(c1cccc(Cl)c1)N1CCN(c2ccc3c(c2)C2CC3CCN2C(=O)OCc2ccccc2)CC1 (centres undefined)	–	inconclusive: 11.6 µM [cytotoxic, partial curve]
CCN(c1ccccc1)S(=O)(=O)c1cc([N+](=O)[O-])ccc1N	inactive: -8.92%	–
COCOCCn1cc(CN2CCS(=O)(=O)N(Cc3ccc(-c4ccc(Cl)cc4)cc3)C(CC(C)C)C2=O)nn1 (centres undefined)	–	inconclusive: 29.1 µM [cytotoxic, single point]
Cc1cccc(NC(=O)Cn2cnc3c(cnn3-c3ccc(F)cc3)c2=O)c1C	–	inconclusive: 20.6 µM [cytotoxic, single point]
O=C(COc1ccccc1)N[C@@H]1c2ccccc2CC[C@H]1OCc1ccccc1	–	inconclusive: 14.6 µM [cytotoxic, partial curve]
COc1ccc(-c2cc(CNc3nc4cc(-c5ccccc5C)sc4c(=O)n3C)on2)cc1	inactive: -3.14%	–
CCOC(=O)c1c(-c2cccs2)csc1NC(=O)CSc1ncn[nH]1	–	inconclusive: 35.5 µM [cytotoxic, single point]
COc1cccc(CN(C)C(=O)c2ccc(S(=O)(=O)Nc3cccc(C)c3C)cc2)c1OC	inactive: -24.2%	–
Cc1cc(N2CCOCC2)nc2ccc(NC(=S)NCCC(C)C)cc12	–	inconclusive: 20.6 µM [cytotoxic, single point]
CCOC(=O)c1ccc(N=Cc2nc(-c3ccccc3)oc2OC(C)=O)cc1	inactive: -7.67%	–
CN1C(CC(=O)Nc2ccc(Cl)cc2Cl)c2ccccc2CC1(C)C (centres undefined)	–	inconclusive: 20.6 µM [cytotoxic, single point]
O=C(O)CN1CCNCCN(CC(=O)O)CCNCC1	–	inconclusive: 23.1 µM [cytotoxic, single point]
COc1cc2cc(CN(CCc3ccccc3C)C(=S)NCCCN(C)C)c(=O)[nH]c2cc1OC	inactive: -28.2%	–
CS(=O)(=O)N1CCN=C1SCc1ccc([N+](=O)[O-])cc1	inactive: -14.4%	–
O=C(Nc1ccc2c(c1)OCO2)c1cc(-c2cccc(O)c2)on1	–	active: 11.6 µM
COc1ccc(OC)c(C(C(=O)NCc2ccco2)N(C(=O)Cn2nnc3ccccc32)C2CC2)c1 (centres undefined)	inactive: 2.97%	–
CCOC(=O)N1CCC(NC(=S)Nc2ccc3nc(N4CCN(C)CC4)cc(C)c3c2)CC1	–	inconclusive: 29.1 µM [cytotoxic, single point]
Cc1cc(C)cc(NC(=O)c2cc(C)n(Cc3cccs3)c2C)c1	–	inconclusive: 9.2 µM [cytotoxic, partial curve]
